Assay results published in the supplement of paper PMC6531468.
Some of the results follow. Read counts after selection give these values, which scatter widely. Each score is taken over the longer molecules that contain the sequence shown.

Columns and labels:
Assay in all cases: 6-mer SELEX enrichment z-score vs GST control; IMP3 is the RNA-binding protein IGF2BP3; higher = more enriched by binding
IMP3 KH1-4 = details: construct: KH1-4 (164-579); SELEX round: R4
Protocol: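 SELEX-seq with GST-tagged IMP3 KH1-4 (Pro164-Lys579) and an N40 RNA pool, round 4. 6-mer z-score of sequence-tag enrichment normalised to the corresponding GST SELEX round; RNA k-mers written as DNA (T for U).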

IMP3 RRM1-2 = details: construct: RRM1-2 (1-163); SELEX round: R2
Protocol: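 SELEX-seq with GST-tagged IMP3 RRM1-2 (Met1-Asn163) and an N40 RNA pool, round 2. 6-mer enrichment z-score normalised to GST SELEX. RNA written as DNA (T = U).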

IMP3 KH1-2 = details: construct: KH1-2 (164-376); SELEX round: R4
Protocol: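 SELEX-seq with GST-tagged IMP3 KH1-2 (Pro164-Phe376) and an N40 RNA pool, round 4 (stringent 300/600 mM KCl washes). 6-mer z-score of sequence-tag enrichment normalised to the corresponding GST SELEX round; RNA k-mers written as DNA (T for U).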

IMP3 KH3-4 = details: construct: KH3-4 (377-579); SELEX round: R4
Protocol: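 SELEX-seq with GST-tagged IMP3 KH3-4 (Pro377-Lys579) and an N40 RNA pool, round 4. 6-mer z-score of sequence-tag enrichment normalised to the corresponding GST SELEX round; RNA k-mers written as DNA (T for U).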

IMP3 KH1-4, sequence (chain, as listed by the source): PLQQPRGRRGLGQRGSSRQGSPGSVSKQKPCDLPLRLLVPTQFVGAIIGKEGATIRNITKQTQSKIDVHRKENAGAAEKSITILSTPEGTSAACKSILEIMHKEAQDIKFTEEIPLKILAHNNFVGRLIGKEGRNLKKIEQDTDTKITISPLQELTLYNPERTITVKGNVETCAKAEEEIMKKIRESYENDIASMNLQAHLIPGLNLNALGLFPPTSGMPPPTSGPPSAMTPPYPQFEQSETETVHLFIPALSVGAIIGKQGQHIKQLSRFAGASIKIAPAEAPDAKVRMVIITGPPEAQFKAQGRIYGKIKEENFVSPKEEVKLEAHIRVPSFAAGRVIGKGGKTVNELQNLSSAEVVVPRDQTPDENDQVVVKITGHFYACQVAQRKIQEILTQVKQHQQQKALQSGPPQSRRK
IMP3 KH3-4, sequence (chain, as listed by the source): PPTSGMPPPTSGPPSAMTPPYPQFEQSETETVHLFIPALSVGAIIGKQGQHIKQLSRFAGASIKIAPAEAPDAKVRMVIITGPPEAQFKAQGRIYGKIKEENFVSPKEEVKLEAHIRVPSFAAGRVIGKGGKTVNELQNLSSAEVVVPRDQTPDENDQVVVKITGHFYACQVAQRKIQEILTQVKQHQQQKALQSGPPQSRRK
IMP3 RRM1-2, sequence (chain, as listed by the source): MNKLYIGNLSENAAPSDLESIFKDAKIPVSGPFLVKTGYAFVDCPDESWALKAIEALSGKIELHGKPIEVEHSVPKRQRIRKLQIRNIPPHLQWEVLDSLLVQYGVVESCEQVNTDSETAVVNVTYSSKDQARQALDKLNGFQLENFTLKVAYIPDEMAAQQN
IMP3 KH1-2, sequence (chain, as listed by the source): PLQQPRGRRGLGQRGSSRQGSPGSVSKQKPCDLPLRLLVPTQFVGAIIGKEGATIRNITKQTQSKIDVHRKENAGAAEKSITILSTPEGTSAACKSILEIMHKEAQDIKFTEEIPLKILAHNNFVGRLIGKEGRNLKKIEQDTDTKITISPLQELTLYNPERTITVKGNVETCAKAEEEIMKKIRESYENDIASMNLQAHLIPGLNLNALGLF

Sequence | 6-mer SELEX enrichment z-score (IMP3 KH1-4) | 6-mer SELEX enrichment z-score (IMP3 RRM1-2) | 6-mer SELEX enrichment z-score (IMP3 KH1-2) | 6-mer SELEX enrichment z-score (IMP3 KH3-4)
GTCAAG | -0.422 | -0.03 | -0.406 | -0.314
TAATAT | 1.58 | -0.062 | 1.5 | 2.39
TCCTAG | -0.077 | -0.058 | -0.139 | -0.133
CGGACG | -1.18 | -0.717 | -1.02 | -1.06
AAATTC | 0.53 | -0.31 | 0.83 | 0.81
CAGACA | 0.71 | 1.93 | 1.05 | 0.335
TATACT | 0.849 | 0.14 | 0.889 | 1.1
AGAGAC | -0.369 | -0.986 | -0.38 | -0.347
CTTGGC | -0.467 | 0.322 | -0.416 | -0.458
CCTCTC | -0.32 | 0.167 | -0.205 | -0.62
CTAAAT | 0.334 | -0.587 | 0.264 | 0.602
TTCAAC | 0.405 | 1.16 | 0.525 | 0.145
TATGGC | 0.831 | 0.409 | 0.663 | 1.02
ACCTGC | -1.47 | -0.588 | -1.32 | -1.76
CGAGCA | -2.1 | 0.447 | -1.86 | -1.77
GACTGG | -0.035 | -0.319 | -0.058 | -0.119
ACAATG | 1.15 | 0.11 | 0.757 | 1.24
TAAGGA | 0.685 | -0.433 | 0.444 | 1.06
TGACTG | 0.164 | -0.592 | 0.038 | 0.025
CGGGAG | 0.096 | -0.517 | 0.345 | 0.212

Sequence | 6-mer SELEX enrichment z-score (IMP3 KH1-4) | 6-mer SELEX enrichment z-score (IMP3 RRM1-2) | 6-mer SELEX enrichment z-score (IMP3 KH1-2) | 6-mer SELEX enrichment z-score (IMP3 KH3-4)
TAATTG | 0.602 | -0.114 | 0.412 | 1.09
CCGCTC | -0.204 | 0.098 | 0.091 | -0.486
CATCAC | 1.79 | 3.17 | 1.6 | 0.33
CCGTTG | -0.458 | -0.242 | -0.378 | -0.588
GAAAGA | 0.058 | -2.2 | -0.131 | 0.86
GTTGAG | -0.522 | 0.034 | -0.473 | -0.314
TCCGGT | 0.002 | -0.012 | 0.011 | -0.029
AATGAG | -0.637 | -0.935 | -0.948 | 0.054
CCGTGG | -0.265 | -0.199 | -0.18 | -0.424
AAAAGC | -2.48 | -1.93 | -2.33 | -2.04
ATTCTC | 0.504 | 0.442 | 0.494 | 0.263
GGTCCG | 0.208 | 0.025 | 0.3 | -0.013
TTGCGG | 0.108 | 0.267 | 0.041 | 0.226
GGCATG | 1.02 | 0.357 | 0.741 | 0.863
GATCTA | 0.008 | -0.134 | -0.091 | 0.035
CGTTAG | -0.325 | 0.056 | -0.328 | -0.225
TGTCCT | 0.295 | 0.049 | 0.087 | 0.055
CCCGCT | -0.535 | -0.155 | -0.295 | -0.707
TGACGG | -0.011 | -0.46 | -0.136 | -0.022
CCCAGC | -1.76 | -0.446 | -1.55 | -2.02

Sequence | 6-mer SELEX enrichment z-score (IMP3 KH1-4) | 6-mer SELEX enrichment z-score (IMP3 RRM1-2) | 6-mer SELEX enrichment z-score (IMP3 KH1-2) | 6-mer SELEX enrichment z-score (IMP3 KH3-4)
GCCGCG | -0.2 | -0.258 | -0.009 | -0.259
ACCTGA | -1.98 | -1.24 | -1.84 | -2.04
ACTTAT | 1.04 | 0.165 | 0.916 | 1.25
GTCATG | 0.202 | 0.174 | 0.08 | 0.164
AACGGG | -0.939 | -0.854 | -0.756 | -0.445
ATGTAG | 0.218 | 0.115 | 0.08 | 0.372
TCGTCA | -0.101 | 0.451 | -0.179 | -0.114
GACTTC | -0.3 | 0.067 | -0.283 | -0.422
TTATGC | 0.427 | 0.16 | 0.278 | 0.465
ACAGTA | 0.69 | 0.354 | 0.715 | 0.532
TGACTC | -0.575 | -0.238 | -0.511 | -0.609
AGCCTG | -0.895 | -0.466 | -0.867 | -0.927
CCTTGC | -0.803 | -0.003 | -0.703 | -0.909
TTGCAA | 0.375 | 0.015 | 0.244 | 0.299
TTCTGC | 0.229 | 0.317 | 0.257 | 0.025
CACACC | 0.306 | 1.24 | 0.37 | -1.26
ATGTGC | 0.587 | 0.047 | 0.24 | 0.403
GGCGGT | 0.24 | 0.365 | 0.35 | 0.458
